Assay results taken from the supplement of paper PMC11417369.
The list shows a part of the results.

The sequences below were run on PfAP2-HC AP2 domain (GST-tagged) (assay: gcPBM binding intensity (ln(normalized median fluorescence intensity)); higher = stronger DNA binding).
How it was run: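 After 1 h on an Agilent 4 × 180k array of primer-extended double-stranded 36-bp intergenic genomic probes and negative controls, bound GST-tagged P. falciparum DNA-binding domains were detected with Alexa488 anti-GST antibody and scanned at 488 nm. The domains had been expressed in E. coli, and binding took place in 1× PBS with 1% milk, 0.2 mg/ml BSA, 0.5% salmon testes DNA and 0.03% Triton X-100. Binding intensity is the highest Masliner-normalised natural-log median intensity across replicate spots of either probe orientation.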

Row | Sequence | gcPBM binding intensity (ln)
1 | TGTATATATCAATGTACACACATGCGTATGTTCGTT [CACACA_site7654] | 10.2
2 | TATAAAAAAAATTGCACACATATTATACAGGACGAC [CACACA_site701] | 10.5
3 | AAAATATATATAACTTGTACATATACATACGTATAT [XGTACX_site4570] | 9.77
4 | TTACATATTATACGAAGTACGTACAAATACTTATAT [XGTACX_site8598] | 9.66
5 | TTGCATTGTCCATGCGCACACACTACTAGAATAATA [CACACA_site3678] | 10
6 | AATTATAAATTGGACACACACATAAAAAATATGTAC [CACACA_site221] | 10.2
7 | TAAAGGAAATAAAAAACATGCAAATATGAAATATAT [TGCATGCA_site745] | 9.73
8 | ATACATAATAACTCCTGTACTTAAAAATGTATATAT [XGTACX_site1071] | 9.6
9 | TAAAAAAAAACATGTGCACACGTTTTATCTACATAA [CACACA_site2336] | 10.4
10 | TCATTTATTGAGGAATGTACACGTAAAATTTAATAA [XGTACX_site4086] | 9.54
11 | ATTTTTTTTTTTTTTTTCTTTTTTCTTCTTTTTTTT [CACACA_negctrl_site1223] | 9.61
12 | ATATATATTATAAAATGTACAAATGTTATATAAAAT [XGTACX_site4750] | 9.85
13 | TTTTTTTTTTTTTTATGTACATATATATATTTTATT [XGTACX_site6915] | 9.76
14 | ACCTTATTTAGTTATAGTACACAAAGTATTAAACAT [XGTACX_site8418] | 9.89
15 | TATATATATTTTTGTGTGCACTATAATATGAAAATA | 9.7
16 | GCGAATAATATGGACATACACACATATACATACATA [CACACA_site2115] | 10
17 | TTTTTTTTTTTCTTCACACACAGTACTACTATTTAT [CACACA_site2409] | 10.1
18 | TTGTTTATTTGTAAAGCTAACAAGAAATGTGAATAT [CACACA_negctrl_site931] | 9.51
19 | AACGAACACTATTACACACATACATACATATGTATG [CACACA_site1859] | 10.1
20 | TATACATAAAAATGATGTACATATAATATATATATA [XGTACX_site3863] | 9.8
21 | TTATTATTATAAAATTGTACTTGGTATATTAACATA [XGTACX_site5829] | 9.53
22 | AATGTATTATGTCTTCGTACACATAAATAAATAAAT [XGTACX_site4004] | 9.58
23 | GGATTAATATATTTACCACACACCCATTTCGATTTT [CACACA_site9200] | 10.1

Row | Sequence | gcPBM binding intensity (ln)
24 | ATCTTGAAGATTATTTGTACACAAAAGTTAAAATAT [XGTACX_site242] | 9.47
25 | ATATAAATATATTTTACACACAATGGAGAAAAAAAT [CACACA_site6450] | 10.2
26 | TATATAATTATTTATTGTACACTCAAATCGATAAGG [XGTACX_site3216] | 9.52
27 | TATTTATAAATATAAACACACAACATTCTATGCATA [CACACA_site3243] | 9.77
28 | TTTTTCATTTAACAGAAGGGAGATAAAAAAAAAAAA [TGCATGCA_negctrl_site261] | 9.03
29 | ATATTATTTTAAAGTACACACATATATTGATATATA [CACACA_site7153] | 9.8
30 | AATAATTATAAAAAATGTACAAAAAAAAAAAAAAAA [XGTACX_site3681] | 9.25
31 | GTATGTATGTATGTATGTACGTATGTATGTATATAT [XGTACX_site3369] | 9.8
32 | AGAATACATCTATGAACACACAGAGTTTTAAAAAAT [CACACA_site5514] | 9.86
33 | ACCTTTTGGATTATATGTACATATATATATATATAT [XGTACX_site2687] | 9.78
34 | ATTAAAAATAAGAAGAGTACATATAATATATATACA [XGTACX_site3092] | 9.65
35 | TTAAAAAGAAAGTTCACACACATATATATGACGGAA [CACACA_site2602] | 10.1
36 | AAAATAATATTTAATACACACATAATTATAATATAA [CACACA_site782] | 9.78
37 | ATTTTTAATTGAATCACACATTTCCTTTCTTTTGTG [CACACA_site4438] | 9.67
38 | CATAAAATATAAAACACACACACATATATTTATATA [CACACA_site6247] | 10.5
39 | AAATAAAAGTTCACCTGTACACACATATATATATGT [XGTACX_site3513] | 10.2
40 | TTAACATAGATATATACACACCAATGATGGCATTTA [CACACA_site6840] | 9.65
41 | TATATATATATATATATACACACTATATAATTCAAA [CACACA_site1023] | 9.58
42 | TTTTTTTTTTTTTAGAGTACACACTTTTTTACATTT [XGTACX_site8159] | 9.53
43 | ATACTAAATATAAATTGTACTTTATTTATATTGAGA [XGTACX_site8699] | 9.48
44 | ATATATAATACTACAGTGCAATATATTATATTTGTT | 9.76
45 | TTCCTCTTAAAATATACACACTGATTTAAGAAAAAA [CACACA_site5770] | 9.33
46 | GCAAATCATGCTATGGTGCATATGTAAGATGAGCAT | 9.63

Row | Sequence | gcPBM binding intensity (ln)
47 | TTGTGATTATTATATTGTACAATAAGTATTAAAGAA [XGTACX_site2753] | 9.7
48 | AACTGAGAAACCGAAGTGCAATATGTATATATACAT | 9.72
49 | ATATATAATATATATGCATGTGACATTAATAATATA [TGCATGCA_site880] | 9.69
50 | TAATTTAAAAATATAAATGTTTCACTTATATATTTT [TGCATGCA_negctrl_site399] | 9.48
51 | ATATGAAAGGTGTACACACGCACACCCAAAAAAATA [CACACA_site2911] | 9.99
52 | TTTTTTACGCATAACTTAATATGAGAATCCCTTTCT [GTGCAC_negctrl_site522] | 9.4
53 | CCACACTTAAAATACACACACACCAAAAAAAAAAAA [CACACA_site2709] | 11.3
54 | GGGAGGATAGTTCACAGTACCCAGTAACTCTACGGA [XGTACX_site2558] | 9.3
55 | ATTTATTGACTATTTACACACATATTTATTAGAATA [CACACA_site6863] | 9.87
56 | ATGATACATAAAGAATATAAAACATGAAATATAATA [CACACA_negctrl_site1461] | 9.79
57 | GCCACACTTTTCTGCACACATAAAAAATATATAAAT [CACACA_site578] | 9.89
58 | CATAAGAGGAACTTTTGTACTTATATGTATATAGTA [XGTACX_site5836] | 9.4
59 | CTTTTATGAAACAGTGCACACATAAAAATATATACA [CACACA_site8981] | 9.74
60 | TATATCGTTATATAAACACACAATATGTTTTTTATA [CACACA_site7730] | 9.65
61 | TACACCCATGGACACACACACACGCATAAAAAAAAA [CACACA_site4933] | 10.7
62 | AAAAAAAAAAAAAAAACACACATTTGAAAGAAAGAA [CACACA_site3339] | 9.69
63 | ATTTTTATTTTCTTTACACACCACATAATTTTTTTT [CACACA_site6092] | 10.1
64 | ATGAACATTTATAAATGTACTCACATATATATATTT [XGTACX_site6692] | 9.65
65 | TTTATATTTATCCAAAGTACTTTTTAAAAACATACC [XGTACX_site4518] | 9.48
66 | TTTTTGTTTTTTTTTTGTACATATATATAAAAAATA [XGTACX_site1214] | 9.5
67 | TTTTTTTTAATATTTTACATTGTCTGTTAACAAATA [CACACA_negctrl_site599] | 9.57
68 | AGATATATATTTTATTGTACACATTAAAGTATAAAA [XGTACX_site7194] | 9.47
69 | AACATTTTTAGATTATATTATTAAATAAGTAACTGC [XGTACX_negctrl_site326] | 9.42

Row | Sequence | gcPBM binding intensity (ln)
70 | AACACTTTAATTTATGCACACATATGGAACAACAGC [CACACA_site8241] | 9.97
71 | AAGTTTTTTATTTTTTGTACATAAAAAATAATAATT [XGTACX_site1755] | 9.42
72 | TATGTATTTATATATACACACTTCTGTGATACGAAA [CACACA_site5128] | 9.61
73 | AGTAAACGATGATGTTGTACAAAAAGGATAATTTAA [XGTACX_site6698] | 9.91
74 | TTTTTATTTTTTATGTAATTTAAATAATTATTCAAA [CACACA_negctrl_site1549] | 9.4
75 | CAATACTATTATTATAGTACGTATAAAATTATATAT [XGTACX_site4950] | 9.7
76 | TACAAAAAAGAAGATATTCAAACAAAAACAAAAAAA [CACACA_negctrl_site1126] | 9.55
77 | TATATATATATGCTACGTACATATATATTATATATA [XGTACX_site7894] | 9.72
78 | TATCATAATAGACACAGTACATATATGTCTTAAATT [XGTACX_site8775] | 9.65
79 | GTATTCTTCTCTCCGTGTACATATATATGTATATAT [XGTACX_site803] | 10.1
80 | ACACATACATACATATGTACATATATACATATATAC [XGTACX_site5559] | 9.92
81 | TATATATAAACAAAATGTACATATTTGAGATACCCT [XGTACX_site2195] | 9.82
82 | AAACCGTGGGAGCACACACACACACGCGCACATATA [CACACA_site6288] | 10.5
83 | GTAACCCACCAAAATGCACACATTAAAAAAAAAAAA [CACACA_site1046] | 9.66
84 | TGTTTCTAAAAAAAAGGTACACATATATATAATATA [XGTACX_site3217] | 9.49
85 | ATAGTTTATACAAATAGTACGCACAAAAAAAAATAA [XGTACX_site6727] | 9.8
86 | AAAAAATTTCAAATGACATAATGTAATTTCCCTTTT [GTGCAC_negctrl_site673] | 9.45
87 | TATATATTATATATATGTACATATTTATTTTATTTT [XGTACX_site6989] | 9.86
88 | AATACCGGAAAGCAAACACACATTTGAAAACCATAA [CACACA_site7761] | 9.99
89 | TTTATCAAAATAAATGCACACAAATTGCACATATCT [CACACA_site8281] | 9.86
